115 sequences from the BET-seq Pho4 binding data (Le et al. 2018) can be followed below.

Some of the results follow. The energies were worked out here from pooled read counts, against the library average; single values are noisy.

For the assay, the target named is T1, Pho4 (S. cerevisiae) (UniProt P07270).
T1 sequence: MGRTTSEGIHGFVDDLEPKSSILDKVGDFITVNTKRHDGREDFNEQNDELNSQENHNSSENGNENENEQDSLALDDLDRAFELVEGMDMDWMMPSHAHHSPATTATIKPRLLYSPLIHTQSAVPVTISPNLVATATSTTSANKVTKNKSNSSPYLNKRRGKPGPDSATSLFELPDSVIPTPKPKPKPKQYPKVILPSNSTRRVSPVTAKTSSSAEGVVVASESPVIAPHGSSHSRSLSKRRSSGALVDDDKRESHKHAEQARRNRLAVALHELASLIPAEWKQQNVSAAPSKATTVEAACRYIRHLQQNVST
Put plainly: relative binding free energy (BET-seq); higher = weaker binding. The settings on record: reference: library average.
In the case of GAGGGCACGTGAATTG, the “relative binding free energy” value was 0.19 kcal/mol. The same measure for GTGGTCACGTGGCTGA: 0.15 kcal/mol; for ACTAGCACGTGAGTGT: 0.18 kcal/mol; for TTTGGCACGTGATCTT: -0.01 kcal/mol. For ATCTGCACGTGAAGGT the value was 0.24 kcal/mol; for CTTATCACGTGGGCGT, 0.06 kcal/mol; for ATGGCCACGTGTGGTA, -0.18 kcal/mol. The same measure for ATGTACACGTGCTGTT: 0 kcal/mol; for TAGGACACGTGATGTG: 0.06 kcal/mol; for TGATTCACGTGATGGG: 0.38 kcal/mol. With TGATGCACGTGGGATA, the “relative binding free energy” value is -0.13 kcal/mol. As for TGGATCACGTGGTGCA, the “relative binding free energy” value is 0.09 kcal/mol. For GTTTGCACGTGCCGGT the value was -0.09 kcal/mol; for AGATACACGTGGAGTT, 0.13 kcal/mol. The same measure for AGGGTCACGTGCTAGT: 0.09 kcal/mol. The same measure for CGTCTCACGTGGTTAG: 0.23 kcal/mol. Consider TGTTACACGTGGACGG, for which the “relative binding free energy” value is 0.14 kcal/mol. In the case of AGATTCACGTGGCGTG, the “relative binding free energy” value was 0.14 kcal/mol. The same measure for TTGAGCACGTGGGGGA: -0.13 kcal/mol; for TAAGGCACGTGTAGGC: -0.1 kcal/mol; for GTGTGCACGTGGCTGG: -0.09 kcal/mol. For TAGGCCACGTGGTGTG the value was -0.11 kcal/mol; for TATAGCACGTGTATTT, 0 kcal/mol.

As to TATTACACGTGCGGGG, the “relative binding free energy” value turned out to be 0.09 kcal/mol. For AGTAGCACGTGTAAAG the value was -0.01 kcal/mol; for GGGTGCACGTGATCGT, 0.22 kcal/mol. Consider AAGAACACGTGGGAAG, for which the “relative binding free energy” value was determined as 0.07 kcal/mol. For GTAGTCACGTGAGATT the value was 0.33 kcal/mol; for GTGCACACGTGCGGTG, 0.03 kcal/mol; for TGGTGCACGTGAGTCG, 0.21 kcal/mol. Regarding GGGCTCACGTGGTTCT, the “relative binding free energy” value was found to be 0.25 kcal/mol. For TTTCACACGTGTAATG the value was 0.18 kcal/mol. For GTTAACACGTGGGTGG the value was -0.13 kcal/mol; for GATTTCACGTGTTTGC, 0.53 kcal/mol; for ATTGACACGTGAGCGG, 0.09 kcal/mol. The same measure for GGGGTCACGTGATATG: 0.22 kcal/mol. Regarding CGTGGCACGTGTGCCT, the “relative binding free energy” value is -0.03 kcal/mol. As for TGGCACACGTGATTGT, the “relative binding free energy” value worked out at 0.18 kcal/mol. For TCTGGCACGTGGGCGT the value was -0.29 kcal/mol; for TCTGTCACGTGAGTAT, 0.16 kcal/mol. In the case of AATCACACGTGGTGGT, the “relative binding free energy” value stood at 0 kcal/mol. Regarding GGTACCACGTGGGCTG, the “relative binding free energy” value is -0.14 kcal/mol.

On to TAGGTCACGTGTAGCA, for which the “relative binding free energy” value stood at 0.31 kcal/mol. For GGGAACACGTGAAGAT the value was 0.39 kcal/mol. The same measure for TGATTCACGTGGGTAG: 0.18 kcal/mol; for TCTGACACGTGTAGGT: 0.1 kcal/mol; for TTATTCACGTGGATGG: 0.33 kcal/mol. For AGTGGCACGTGTTATC the value was 0.03 kcal/mol; for GTTTCCACGTGGGGAT, 0.12 kcal/mol. Consider ATGTGCACGTGAGGGG, for which the “relative binding free energy” value is 0.23 kcal/mol. For ATATGCACGTGGACAT the value was -0.05 kcal/mol; for GGTGACACGTGGTTCT, -0.04 kcal/mol. On to CGGTTCACGTGTTTAT, for which the “relative binding free energy” value was found to be 0.37 kcal/mol. For CGGTCCACGTGTTGTT the value was 0.12 kcal/mol; for GGAGTCACGTGTCCGT, 0.28 kcal/mol. The same measure for GTGTTCACGTGGATCG: 0.3 kcal/mol; for TTTATCACGTGTCTCG: 0.21 kcal/mol; for TGGTGCACGTGTGGAC: 0.18 kcal/mol.

Consider GGAATCACGTGTTTGC, for which the “relative binding free energy” value turned out to be 0.31 kcal/mol.

For the sequence ATGCGCACGTGGGGTC, the “relative binding free energy” value is -0.33 kcal/mol. The same measure for TTAGGCACGTGGGGGG: -0.21 kcal/mol. In the case of GTAACCACGTGTGGTT, the “relative binding free energy” value came to 0.01 kcal/mol. Consider GGGGTCACGTGGTGTA, for which the “relative binding free energy” value was determined as 0.15 kcal/mol. Consider GTCGGCACGTGTATAG, for which the “relative binding free energy” value was 0.01 kcal/mol. The same measure for GACGACACGTGGTGGT: 0.04 kcal/mol.

TAAGGCACGTGTGGCG: the “relative binding free energy” value was -0.11 kcal/mol.

As to CTCGGCACGTGGTGTT, the “relative binding free energy” value is -0.17 kcal/mol.

Turning to AGCTACACGTGGGAGT, the “relative binding free energy” value came to 0.04 kcal/mol. For TTTCACACGTGGCGTT the value was -0.03 kcal/mol; for TTGGGCACGTGATAAG, 0.02 kcal/mol; for GATCTCACGTGGGTTA, 0.15 kcal/mol. For AATGACACGTGTTGTT the value was -0.08 kcal/mol; for TGGGGCACGTGCGCGT, -0.24 kcal/mol. The same measure for ATGAACACGTGTGGCG: 0.06 kcal/mol; for TATGTCACGTGACTTA: 0.15 kcal/mol; for CTTGGCACGTGACATG: 0.05 kcal/mol. As for TAGAACACGTGAGTTG, the “relative binding free energy” value was found to be 0.25 kcal/mol.

Regarding GGTAACACGTGGTGGA, the “relative binding free energy” value was found to be 0.02 kcal/mol. The same measure for CGGCGCACGTGGGTTT: -0.25 kcal/mol; for TAGTGCACGTGGGGTG: -0.2 kcal/mol. For TTCGTCACGTGTTGCT the value was 0.02 kcal/mol; for TTGAACACGTGGGTGC, -0.07 kcal/mol.

TGTGGCACGTGGGGGT: the “relative binding free energy” value is -0.18 kcal/mol.

As to ATGGTCACGTGCTGAT, the “relative binding free energy” value was found to be 0.11 kcal/mol. For AAGGGCACGTGACAGG the value was 0 kcal/mol. The same measure for TTGGGCACGTGAACGT: 0.15 kcal/mol. The same measure for GGTTGCACGTGGAGAT: 0.09 kcal/mol.

As to TGGTGCACGTGCGATG, the “relative binding free energy” value is -0.09 kcal/mol. For TAGGTCACGTGAAGTG the value was 0.32 kcal/mol; for AGTTTCACGTGTTCTT, 0.16 kcal/mol; for TGCGTCACGTGCGGGA, -0.12 kcal/mol. In the case of AATAGCACGTGTGTAT, the “relative binding free energy” value is -0.08 kcal/mol. For GGATGCACGTGAGTAA the value was 0.31 kcal/mol; for GGTATCACGTGACTGG, 0.33 kcal/mol.

For AGTGCCACGTGGATGG, the “relative binding free energy” value was -0.06 kcal/mol. Take AGGGTCACGTGGAGGA: the “relative binding free energy” value came out at 0.09 kcal/mol. Consider GGAGGCACGTGTAGGA, for which the “relative binding free energy” value is -0.19 kcal/mol.

TTGGACACGTGGCAAT: the “relative binding free energy” value turned out to be 0.11 kcal/mol.

Turning to TGGTTCACGTGTCTCT, the “relative binding free energy” value amounted to 0.31 kcal/mol. The same measure for TGTTTCACGTGAATCG: 0.23 kcal/mol; for GTCTGCACGTGGATTT: 0.1 kcal/mol. For GGTTTCACGTGTTGGG the value was 0.31 kcal/mol; for AGAGGCACGTGTTCTG, -0.25 kcal/mol. With TGTGTCACGTGGTGCC, the “relative binding free energy” value was 0.08 kcal/mol. For TTTTTCACGTGATTAC the value was 0.18 kcal/mol; for CGGGGCACGTGGATGG, -0.08 kcal/mol; for TGGCGCACGTGGTAAT, -0.15 kcal/mol. For TGCGTCACGTGTTTGA the value was -0.01 kcal/mol; for ATTGCCACGTGGCGGG, -0.21 kcal/mol; for TGGAGCACGTGTGCGA, -0.09 kcal/mol. For AGTGGCACGTGAGGCT the value was -0.02 kcal/mol; for GATGGCACGTGATAGG, 0.03 kcal/mol; for TGTTGCACGTGGGAGT, 0.04 kcal/mol. TAAGGCACGTGAGTGT: the “relative binding free energy” value was 0.06 kcal/mol. For GGTATCACGTGTGACT the value was 0.2 kcal/mol.
